About 2,200 (0.71%) of roughly 310,000 compounds showed an effect of 50% or more. The effect is printed as a negative number. The list shows a part of the results.
These compounds were tested against human ether-à-go-go-related gene (hERG) potassium channel (human, UniProt Q12809) (assay: primary screen, population patch clamp on CHO cells stably expressing hERG).
Chain of human ether-à-go-go-related gene (hERG) potassium channel (Q12809 whole entry, looked up): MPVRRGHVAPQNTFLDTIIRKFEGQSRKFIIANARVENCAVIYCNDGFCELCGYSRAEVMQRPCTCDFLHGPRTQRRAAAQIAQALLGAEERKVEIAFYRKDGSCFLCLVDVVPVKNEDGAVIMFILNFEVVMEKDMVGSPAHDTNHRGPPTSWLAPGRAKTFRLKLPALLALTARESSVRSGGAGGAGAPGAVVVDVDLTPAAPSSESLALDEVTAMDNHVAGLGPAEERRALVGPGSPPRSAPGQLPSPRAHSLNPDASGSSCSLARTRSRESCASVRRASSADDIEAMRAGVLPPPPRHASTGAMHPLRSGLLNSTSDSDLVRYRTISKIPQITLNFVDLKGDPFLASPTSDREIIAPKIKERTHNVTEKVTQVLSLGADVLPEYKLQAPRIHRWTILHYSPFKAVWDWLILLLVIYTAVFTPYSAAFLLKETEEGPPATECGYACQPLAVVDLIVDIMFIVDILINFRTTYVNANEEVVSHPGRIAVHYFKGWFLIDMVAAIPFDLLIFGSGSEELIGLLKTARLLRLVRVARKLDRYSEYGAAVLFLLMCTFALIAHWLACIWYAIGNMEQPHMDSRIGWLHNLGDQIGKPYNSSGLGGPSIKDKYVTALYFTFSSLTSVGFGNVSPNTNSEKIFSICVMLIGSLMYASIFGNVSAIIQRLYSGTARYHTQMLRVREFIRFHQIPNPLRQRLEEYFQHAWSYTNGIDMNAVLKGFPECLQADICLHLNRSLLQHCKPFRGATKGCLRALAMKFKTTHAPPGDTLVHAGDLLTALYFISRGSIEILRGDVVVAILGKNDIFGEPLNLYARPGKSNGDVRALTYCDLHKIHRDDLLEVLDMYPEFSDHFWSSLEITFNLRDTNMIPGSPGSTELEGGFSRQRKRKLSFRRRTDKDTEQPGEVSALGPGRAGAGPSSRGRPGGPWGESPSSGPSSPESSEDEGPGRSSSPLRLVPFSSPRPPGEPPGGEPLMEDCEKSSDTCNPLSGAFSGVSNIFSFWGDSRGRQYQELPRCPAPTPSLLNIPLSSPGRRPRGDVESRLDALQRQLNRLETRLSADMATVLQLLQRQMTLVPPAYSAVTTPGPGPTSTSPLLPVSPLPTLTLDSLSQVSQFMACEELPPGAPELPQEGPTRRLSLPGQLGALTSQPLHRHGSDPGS

SMILES | hERG current change (%, negative = inhibition) at 1uM
Nc1ncc(-n2cncn2)c(-c2ccc(Cl)cc2)n1 | 14.9%
O=C(CCC(=O)OCc1ccc([N+](=O)[O-])cc1Cl)Nc1ccccc1 | 2.63%
O=C(c1ccc(Cl)c(S(=O)(=O)N2CCOCC2)c1)N1CCN(c2ccccn2)CC1 | -4.66%
O=C(Nc1ccc(S(=O)(=O)NCc2ccccc2)cc1)c1ccc(Br)o1 | -10.5%
O=C(NCCCn1cccn1)C1CCC(=O)N(Cc2ccccc2F)C1 (stereo not drawn) | 7.05%
O=C1OCCC1Sc1nnc(-c2ccc(O)cc2)o1 (stereo not drawn) | 17.1%
CS(=O)(=O)N(CC(=O)NCCSC1CCCCC1)c1ccc2c(c1)OCO2 | 1.66%
Cc1ccc(N(C(=O)c2ccco2)C2C=CS(=O)(=O)C2)cc1 (stereo not drawn) | 3.68%
COc1ccccc1-c1ccc(C(=O)O)o1 | 12.7%
CC1=NN(C)C(=O)C1Cc1c(F)cccc1Cl (stereo not drawn) | 6.67%
Nc1nc2n(n1)C1(CCCCC1)C1=C(CCCC1)N2 | -16.4%
CSc1ccccc1OCc1cc(C(=O)NCc2ccc(C)s2)no1 | 14.5%
CCN(CC(=O)NCc1ccco1)S(=O)(=O)c1ccc(F)cc1 | 12.5%
COc1ccc(CN2CCCC(N3CCN(c4ccc(OC)cc4)CC3)C2)cc1 (stereo not drawn) | -4.79%
CC(C)C(NS(=O)(=O)c1cccc2nsnc12)C(=O)NC1CCCCC1C (stereo not drawn) | 14.6%
CC(=O)N1CCCc2cc(S(=O)(=O)N3CCN(C4CCCCC4)CC3)ccc21 | 5.2%
COc1ccc(CC(=O)Nc2c(C(N)=O)oc3ccccc23)cc1OC | 11.6%
CCc1cccc(OCC(=O)Nc2cc(S(=O)(=O)N3CCOCC3)ccc2N2CCCC2)c1 | 15.2%
COc1ccccc1/C=N/NC(=O)c1[nH]c(C)c(C(=O)N/N=C/c2ccccc2OC)c1C | 12.9%
N#Cc1ccc2[nH]c(CO)c(-c3ccccc3)c2c1 | -3.83%
C=CCn1c(O)c(Cc2ccc(OCC)cc2)c(=O)[nH]c1=O | 15.7%
Cc1ccc(-c2csc(NC(=O)c3ccccc3F)c2C(=O)O)cc1 | 15.2%
COc1ccc(S(=O)(=O)c2ccc(O)cc2)cc1 | 0.81%

SMILES | hERG current change (%, negative = inhibition) at 1uM
CN(C)CC(=O)c1c(N)n(Cc2ccccc2)c(=O)n(C)c1=O | 8.34%
COc1ccc(NC(=O)c2cccnn2)cc1 | 16.6%
CCOc1ccc(OCCC(=O)N(CCC2=CCCCC2)c2c(N)n(Cc3ccccc3)c(=O)[nH]c2=O)cc1 | 8.95%
Cc1ccccc1N=C1SCC(=O)N1Cc1ccccc1 | 5.03%
O=C(CSc1nc2ccccc2o1)N1c2ccccc2Sc2ccc(C(F)(F)F)cc21 | 10.6%
c1ccc(C2=NN(c3ccccc3)C(c3ccco3)C2)cc1 (stereo not drawn) | 13.5%
O=C(Nc1cccnc1)C1CCCN(c2ncnc3c2nc2n3CCCCC2)C1 (stereo not drawn) | -8.21%
CCOC(=O)c1c(C)n(C)c2ccc(OC(=O)c3ccc(N4C(=O)CCC4=O)cc3)cc12 | 8.82%
Cc1cc(C)n(CC(O)COc2ccc(Cl)cc2Cl)n1 (stereo not drawn) | 7.74%
O=C(c1cccnc1Cl)N(Cc1ccccc1)Cc1ccccc1 | -2.21%
CCc1nc(SCc2ccc(F)cc2)n[nH]1 | 9.14%
CCc1cc2c(N3CCN(C(=O)c4ccco4)CC3)ncnc2s1 | -20.1%
COc1ccc(N(CC(=O)N2CCC(C(N)=O)CC2)S(=O)(=O)c2ccccc2)cc1 | 11.8%
O=C(COc1cccc(-n2cnnn2)c1)Nc1ccc([N+](=O)[O-])cc1 | -23%
COc1ccc2[nH]c(=O)c(-c3nnn(-c4ccccc4)n3)cc2c1 | 7.29%
O=C(COc1ccc(Cl)cc1)NNC(=S)NCc1ccccc1 | 14.2%
NC(=O)CSc1nnc(NC(=O)c2ccc(S(=O)(=O)N3CCOCC3)cc2)s1 | 5.26%
CC(=O)N(c1ccc(Cl)cc1)c1nc(C)cc(C)c1C#N | 8.09%
O=C(c1ccccc1S(=O)(=O)NCc1ccccc1)N1CCCCC1 | -0.529%
O=C(C1CC(=O)N(c2ccc(Br)cc2)C1)N1CCCC1 (stereo not drawn) | 4.46%
C1CCN(c2nc(N3CCCCC3)nc(N3CCNCC3)n2)CC1 | 2.68%
COc1ccc(Nc2nnc(SCc3cc(=O)n4ccsc4n3)s2)cc1 | -38%
NC(=O)[C@H](Cc1cc2ccccc2s1)NC(=O)[C@@H]1CC2(CC(c3cccc(NC(=O)[C@@H]4CCC(=O)N4)c3)=NO2)CN1C(=O)/C=C/Sc1ccccc1 (stereo partly drawn) | 12.2%

SMILES | hERG current change (%, negative = inhibition) at 1uM
O=C(CNC(=O)c1ccc(Oc2ccccc2)cc1)OCc1ccc(Br)cc1 | -1.37%
O=C(Cn1ccc([N+](=O)[O-])n1)NCC1CCCO1 (stereo not drawn) | 20.9%
CCCc1cc(Nc2ccccc2OCC)n2ncnc2n1 | -11.1%
O=C(CN(c1ccccn1)S(=O)(=O)c1ccccc1)Nc1ccccc1 | 8.64%
CN(CC1CCCN(CCc2ccc(Cl)cc2)C1)C(=O)c1ccc2nc[nH]c2c1 (stereo not drawn) | -6.07%
COc1ccc(Cl)cc1NC(=O)c1cnccn1 | 13.7%
OCCN1CNC(=S)NC1 | 11%
Cn1cc(CC(=O)NC2CCCCC2)c2ccccc21 | 21.5%
Cn1c(=O)[nH]c(=O)c2c1nc(N/N=C/c1ccncc1)n2Cc1ccc(F)cc1 | 12.1%
Cc1ccc(-n2nc(C(=O)O)c3ccccc3c2=O)cc1C | -2.75%
Nc1cccc2c1C(=O)N(CC(=O)NC13CC4CC(CC(C4)C1)C3)C2=O | 10.6%
CCN(c1cccc(C)c1)S(=O)(=O)c1ccc2c(c1)NC(=O)CCS2 | 10.1%
Cc1ccc(Nc2ncccc2C(=O)NCc2cccs2)c(C)c1 | 12.2%
COc1ccc2c(c1)[nH]c1c(=O)n(CCc3cnc[nH]3)cnc12 | 0.251%
Cc1cc2c(SCC(=O)NC3CCCCC3)ncnc2s1 | 12.9%
COc1ccccc1N(C(=O)c1snc(C(N)=O)c1N)C(C(=O)NC1CCCC1)c1ccc2ncccc2c1 (stereo not drawn) | 11.6%
CC(=O)N1CCc2c(sc(NC(=O)CCS(=O)(=O)c3ccc(C)cc3)c2C#N)C1 | 3.7%
O=C(Cn1ncc2c1-c1ccccc1OC2)N(Cc1ccco1)C1CCCCC1 | 11.8%
Cc1ccc(OCC(=O)Nc2oc(-c3ccccc3)c(-c3ccccc3)c2C#N)cc1 | 20.1%
CC1CN=C(Nc2cccc(S(=O)(=O)N(C)C)c2)S1 (stereo not drawn) | 6.85%
CCCCOC(=O)Oc1ccc2c(=O)c(Oc3cccc(C)c3)coc2c1 | 6.66%
COc1ccc(C(=O)NNC(=O)C(Cc2ccc(O)cc2)NC(=O)c2ccccc2NC(=O)c2ccc(OC)cc2)cc1 (stereo not drawn) | 4.83%
Fc1ccc(CSc2ccc3nnc(-c4cccs4)n3n2)cc1 | 13.5%

SMILES | hERG current change (%, negative = inhibition) at 1uM
CCOC(=O)c1cc(C(C)(C)C)n(CCCN2CCOCC2)c1C | 7.92%
CCC1(c2ccc(F)cc2)NC(=O)N(CC(=O)Nc2cccnc2Cl)C1=O (stereo not drawn) | 3.81%
CNC(=O)/C(C#N)=C/c1cn(CC(=O)OC)c2ccccc12 | -0.362%
COCc1nnc(N)s1 | 6.55%
COCCNC(=O)CCCCCN1C(=O)CCC1=O | 10.8%
COc1cccc(-n2c(SCC(=O)NC(C)(C)C)nnc2-c2ccoc2C)c1 | -3.46%
O=C1CC(N(CCc2ccccc2)C(=S)Nc2ccccc2)C(=O)N1c1ccc(F)cc1 (stereo not drawn) | 13.4%
CCCC(=O)N(c1ccc(OCC)cc1)S(=O)(=O)c1ccc2c3c(cccc13)C(=O)N2C | 11.4%
CC(Oc1ccccc1)C(=O)N1CCC2(CC1)Oc1ccc(Cl)cc1C(=O)C21CC(c2ccccc2)=NO1 (stereo not drawn) | 6.07%
CC1(C)CC(=O)N(c2ccc(Cl)cc2Cl)C(=O)C1 | 14.4%
O=[N+]([O-])c1cccc2c(Cl)ccnc12 | 11.5%
CCN(CCO)c1ncnc2c1sc1nc(C(C)C)c3c(c12)CC(C)(C)OC3 | 7.65%
COc1ccc(CNC(=O)c2nn(-c3ccccc3)cc2OC)cc1 | 7.62%
O=c1[nH]c2ccccc2nc1NCCN1CCOCC1 | -10.3%
CC1CC1C(=O)OCC(=O)NCc1ccccc1Cl (stereo not drawn) | 4.39%
C(=N/N1CCN(c2ccccc2)CC1)/c1cccs1 | 5.65%
Cc1ccc(NC(=O)CCSCCc2ccccn2)cc1 | 3.54%
Clc1ccc(Sc2ccc(/C=N/n3cnnc3)o2)cc1 | -10.7%
COc1cccc(NC(=O)C2CCCN(S(C)(=O)=O)C2)c1 (stereo not drawn) | 22.7%
COc1ccc(S(=O)(=O)NNC(=O)Nc2ccc(F)cc2F)c(OC)c1 | 3.13%
CCN(CC)S(=O)(=O)c1cccc(C(=O)N/N=C/c2ccc(O)c(O)c2O)c1 | 8.82%

Reference: paper PMC4336329 (PLoS ONE, 2015)
